From ChEMBL document CHEMBL4888484, “Replenishing the malaria drug discovery pipeline: Screening and hit evaluation of the MMV Hit Generation Library 1 (HGL1) against asexual blood stage Plasmodium falciparum ,using a nano luciferase reporter read-out” (2022)
About 540 (0.36%) of roughly 150,000 compounds showed an effect of 50% or more. This is one part of the list.

These compounds were tested on Plasmodium falciparum (assay: Primary screen in NF54 nanoGlo assay, in single point, at 2uM, 72h; a lower Z score goes with more inhibition). Conditions: timepoint 72 hour.
Type: functional, Erythrocyte

Compound	% Inhibition [%]	Z score
CC(C)C(NC(=O)c1ccccc1F)C(=O)NCC(CO)CC1CCCC1 (stereo unspecified)	-34	3.98
COc1cccc(C2=C[C@@H](c3cccc(OC)c3)N3N=CNC3=N2)c1	3	-0.41
CCn1cc(CN(C)S(=O)(=O)CCOc2ccccc2F)c(C)n1	-2	0.31
O=C1NC2(CCN(Cc3ccc(F)cc3)CC2)N=C1c1cccc(F)c1	-10	1.47
Cc1c(S(=O)(=O)c2ccc(Cl)cc2)c(N)n(CCc2ccccc2)c1C	-2	0.21
Cc1ccc2oc(-c3nnc(C(=O)N4CCN(c5cc(Cl)ccc5C)CC4)o3)c(C)c2c1	18	-2.15
COc1ccccc1C(=O)O[C@@H](C)c1cnc(C2OCCO2)s1	-21	1.85
O=C1CN(c2cccc3ccccc23)C(=O)N1c1ccc(Cl)c(Cl)c1	13	-2.45
C[C@@H](CC(=O)N1CCCCCC1)NCC(=O)NC(C)(C)C	-7	1.3
CCc1ccc(-c2cc3n(n2)C[C@@](C)(C(=O)NC2CCCCCCC2)N(C2CCCCC2)C3=O)cc1	-2	0.31
CCN(CCO)S(=O)(=O)c1ccc(Cl)cc1F	0	0.02
CC(COC1CCOC1)NC(=O)N1CCCN(C)c2ccc(F)cc21 (stereo unspecified)	-7	0.86
O=C(Nc1cc(F)ccc1F)N1CCCCCC1CC(O)c1ccccc1 (stereo unspecified)	0	-0.02
CN(C)Cc1nnc(C(=O)N2CCC(CCCc3ccccc3)CC2)o1	-3	0.67
CC(CN(C)C(C)C(=O)NCC1CCCO1)c1ccccc1 (stereo unspecified)	-3	0.6
CCn1c(Cc2ccccc2O)nnc1N1Cc2ccc(C#N)cc2C1	-17	2.94
Cc1cccc(-c2nc3ccc(C(=O)NCCN(C)C4CCCCC4)cc3nc2-c2cccc(C)c2)c1	-1	0.18
Cc1nccc(N2CCC[C@H](CNC(=O)Cn3ccnc3C)C2)n1	-11	1.41
Cc1cc(C)c(CNC[C@H](C)n2cncn2)c(C)c1CO	-3	0.5
CCCn1ncc(CN(Cc2ccccc2OC)C2CC2)c1C	3	-0.56
CC(C)c1nc(CN2C[C@H]3CN(C4CCCCC4)C[C@@]3(C(=O)O)C2)no1	15	-1.96

Compound	% Inhibition [%]	Z score
O=C(N[C@H]1CCN(Cc2coc(-c3ccccc3)n2)C[C@@H]1O)c1cccnc1	-14	2.74
COc1cc(F)c([C@H](C)NCc2nnc(C)s2)cc1OC	9	-1.06
O=S(=O)(c1cccc2ccoc12)N1CCOCC12CCC2	-9	0.91
C=CCNC(=O)[C@@H](C#N)C(=O)c1cc(F)c(F)c(F)c1	6	-0.92
O=S(=O)(c1ccc2c(c1)OCCCO2)N1CCCCCC1	2	-0.43
COC(=O)c1cc(C)nc2c1c(=O)n(Cc1ccc(Cl)cc1)c(=O)n2-c1ccccc1OC	-7	1.06
NC(=O)[C@H]1CCN(C(=O)c2cccc3sc(C(F)(F)F)nc23)C1	1	-0.11
Cc1nc(-c2ccc(C)c(S(=O)(=O)NCc3ccccc3C)c2)cs1	24	-3.18
Cc1cc(OCCN(C)C)cc(C(C)C)c1	1	-0.14
Cc1noc(Cn2nnnc2-c2ccncc2)n1	-7	0.95
CCc1nnc(C(=O)NC2(c3ncccn3)CCC2)s1	-8	1.12
CNc1ccc(Br)cc1F	9	-0.77
CNC(=O)Cc1noc(-c2cscc2C)n1	-5	0.5
COCCS(=O)(=O)Nc1ccc2nscc2c1	3	-0.39
CCCN(Cc1c(-c2ccccc2)noc1N1CCOCC1)C(=O)c1ccc(C)cc1	1	-0.23
Cc1cc(NC(=O)c2cccc(F)c2)nn1-c1ccc(F)cc1F	-4	0.61
O=C(NCc1cccc(COC2CCOCC2)c1)c1cccnc1O	-13	2.65
Cc1cc(NC(=O)NCc2cccc(OC3CC3)c2F)c(N(C)C)nn1	-4	0.58
COc1ccc2c(c1)CN(C(=O)CC(C)C)CC[C@H]1COC(=O)N21	-6	0.98
CCNC(=O)N1CCc2nc(N3CCN(C)CC3)nc(Oc3ccccc3F)c2C1	-4	0.56
O=C1C[C@H](c2nc(C3CC3)no2)CN1c1ccc2c(c1)CCC2	0	-0.03

Compound	% Inhibition [%]	Z score
Cn1cc(S(N)(=O)=O)c2ccccc21	-10	1.18
O=C(c1c[nH]nc1-c1c(F)cccc1F)N1CCC[C@@H]1CF	17	-2.01
O=C(c1nnc(-c2cc(S(=O)(=O)N3CCN(C4CCCCC4)CC3)c[nH]2)o1)N1CCCC1	-12	1.33
CCn1nncc1C(=O)N1CCOCC2(CCCC2)C1	-7	1.11
NC(=O)C1CCN(C(=O)c2cc(O)c(OCc3ccccc3)cn2)CC1	-3	0.4
COCC(=O)N[C@H](C(=O)NCc1ccc(C)s1)C(C)C	-12	1.53
c1cn2cnnc2c(N2CCc3sccc3C2)n1	-5	0.96
CC(=O)N[C@H]1[C@H](c2ccccc2)N(CCCc2ccccc2)CC[C@@]1(C)O	36	-4.09
CCC(=O)N1CCCN(c2ccc(=O)n(-c3ccc(C)cc3)n2)CC1	13	-1.54
O=C(c1cc(-c2ccccc2)nc2ccccc12)N1CCN(c2ncccn2)CC1	-6	0.8
Cc1n[nH]c(C)c1C(=O)NCc1nc(-c2cccn2C)no1	-4	0.49
Cc1ccc2nc(-c3cccc(C)c3OS(=O)(=O)c3cccc(C(F)(F)F)c3)oc2c1	-1	0.12
Cc1noc([C@@H]2CCCN2C(=O)c2ccc3nc(-c4ccccc4)cn3c2)n1	-1	0.25
CC(C)CN(Cc1c(-c2ccccc2)noc1N1CCC(C)CC1)C(=O)C1CCCC1	-1	0.11
CN1[C@@H](CCC(=O)NCc2ccc(F)cc2)CNC(=O)[C@@H]2[C@H]1CCN2Cc1nc2ccccc2n1C	28	-3.31
O=C(CCC1CCCC1)Nc1ccc2c(c1)CCC(=O)N2	-15	1.73
Cc1c(C(=O)N[C@@H](C)c2ccco2)cnn1-c1ncc2c(n1)-c1ccccc1CCC2	3	-0.5
Cc1[nH]c2c(c1C(=O)NCc1ccc3nonc3c1)C(=O)CCC2	-3	0.5
C[C@H]1C(=O)NCCCN1Cc1ccn(-c2ccc(Cl)cc2)n1	0	0.06
C[C@@H](CCc1ccc(F)cc1)C(=O)Nc1cc2n(n1)CCN(C)C2=O	-13	2.24
CCC[C@@H]1C[C@@H]1C(=O)N1CCC(n2cc(C3CCCCC3)nn2)CC1	-1	0.22

Compound	% Inhibition [%]	Z score
CCCNC(=O)CCc1nnc(C(=O)Nc2ccc(F)cc2)s1	-12	2.17
O=C(Nc1c(O)cccc1F)c1cccc(-n2cccn2)n1	-8	1.53
O=C(C1CCC1)N1C[C@@H]2CN(Cc3cc(F)c(F)c(F)c3)C[C@]2(C(=O)O)C1	-4	0.84
CCN1C(=O)C2(CCN(S(=O)(=O)c3ccccc3)CC2)C[C@H]1C(=O)NCCCOC	-10	1.26
Cc1c(C(=O)N2CCO[C@H](C(=O)O)C2)nnn1-c1ccc(-c2ccccc2)cc1	5	-0.93
COc1ccc2c(c1)CN(C(=O)C1(c3ccccc3)CCOCC1)CC2	-10	1.93
CCCCc1nc(CN2CCN(C(=O)CC(C)C)[C@H]3CS(=O)(=O)C[C@H]32)c[nH]1	2	-0.26
O=C(CC(O)c1cccc(F)c1)NCC1CCOC1c1ccccc1 (stereo unspecified)	-1	0.11
O=C(OC(c1nc2ccccc2o1)C(F)(F)F)C1CC2CCC1C2 (stereo unspecified)	-6	0.67
CC[C@H]1CC[C@H](C(=O)N2CC[C@](C)(CO)C2)CC1	-5	0.72
CN(C)C(=O)Cn1cc(NC(=O)C(=O)Nc2ccc(N(C)C)c(Cl)c2)cn1	-14	2.51
CCCN1CCC[C@H](CNC2Cc3ccccc3C2)C1	4	-0.79
CCN1CCC[C@@H]1CN1Cc2ccc(C(=O)N3CCOCC3)cc2C1=O	-5	0.92
COc1cccc(NC(=O)Cn2cnc(-c3noc(-c4cccnc4)n3)c2)c1	6	-1.08
CC[C@](C)(NC(=O)CN1CCOc2ccc(Cl)cc21)c1nccs1	-11	2.09
O=S(=O)(NCC#CCOc1cccc(C(F)(F)F)c1)c1cccnc1	-26	3.39
O=C(Cn1c(C(=O)N2CCCC2)cccc1=O)Nc1ccc(F)cc1	-11	1.03
C[C@@H](C(=O)N(C)CC1(CO)CCCC1)N1CCN(C)CC1	-13	1.47
O=C(c1ccc(-c2cc[nH]n2)s1)N(Cc1ccccc1)CC1(CO)CC1	7	-0.72
COc1ccc(NC(=O)COc2cc(C)cc(C)c2)cc1S(=O)(=O)N1CCCCC1	9	-1.03
